# Measurements as given in publication PMC4336329 (PLoS ONE, 2015).
# The campaign covered roughly 310,000 compounds. About 2,200 (0.71%) showed an effect of 50% or more. Effects have a minus sign here. The list shows a part of the results.
# Biological target: human ether-à-go-go-related gene (hERG) potassium channel (human, UniProt Q12809)
# Experiment: primary screen, population patch clamp on CHO cells stably expressing hERG
# Chain of human ether-à-go-go-related gene (hERG) potassium channel (Q12809 whole entry, looked up): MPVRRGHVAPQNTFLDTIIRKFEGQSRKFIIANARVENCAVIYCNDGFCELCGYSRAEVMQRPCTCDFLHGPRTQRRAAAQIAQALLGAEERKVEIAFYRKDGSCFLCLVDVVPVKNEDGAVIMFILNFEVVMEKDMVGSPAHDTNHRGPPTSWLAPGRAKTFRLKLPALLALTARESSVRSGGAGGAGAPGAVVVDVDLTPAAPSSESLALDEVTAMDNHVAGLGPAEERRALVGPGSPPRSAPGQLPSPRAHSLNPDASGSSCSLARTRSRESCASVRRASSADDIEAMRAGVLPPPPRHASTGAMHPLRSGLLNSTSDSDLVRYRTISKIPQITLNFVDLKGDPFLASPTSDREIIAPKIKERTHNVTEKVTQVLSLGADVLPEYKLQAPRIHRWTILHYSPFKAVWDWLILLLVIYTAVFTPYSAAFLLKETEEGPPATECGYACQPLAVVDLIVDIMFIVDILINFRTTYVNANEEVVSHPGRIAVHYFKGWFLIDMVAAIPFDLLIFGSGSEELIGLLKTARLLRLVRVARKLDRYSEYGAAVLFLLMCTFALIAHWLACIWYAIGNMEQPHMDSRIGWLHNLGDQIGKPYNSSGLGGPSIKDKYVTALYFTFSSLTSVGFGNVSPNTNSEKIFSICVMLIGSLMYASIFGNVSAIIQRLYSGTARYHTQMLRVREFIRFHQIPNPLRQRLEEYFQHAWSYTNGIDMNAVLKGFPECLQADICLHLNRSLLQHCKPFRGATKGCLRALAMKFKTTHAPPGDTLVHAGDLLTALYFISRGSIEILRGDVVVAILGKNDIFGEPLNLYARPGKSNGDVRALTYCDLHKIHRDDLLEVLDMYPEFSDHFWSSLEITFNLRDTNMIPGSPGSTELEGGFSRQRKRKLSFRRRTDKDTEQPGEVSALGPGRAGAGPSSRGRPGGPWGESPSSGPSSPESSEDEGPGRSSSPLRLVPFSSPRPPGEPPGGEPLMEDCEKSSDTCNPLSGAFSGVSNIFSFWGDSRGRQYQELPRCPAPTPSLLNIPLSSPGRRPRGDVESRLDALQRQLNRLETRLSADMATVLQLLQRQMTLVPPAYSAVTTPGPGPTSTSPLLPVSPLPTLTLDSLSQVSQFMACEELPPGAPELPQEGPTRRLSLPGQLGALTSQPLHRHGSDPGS
row,Structure (SMILES),"hERG current change (%, negative = inhibition) at 1uM [%]"
1,CCOC(=O)CCc1c(C)nc2cc(-c3ccc(Cl)cc3)[nH]n2c1=O,5.85
2,Cc1nnc(NC(=O)CSc2ncnc3c2cnn3-c2ccccc2C)s1,4.81
3,COCCn1nnnc1C(c1ccc(C(F)(F)F)cc1)N1CCOCC1 (centres unmarked),18.2
4,CCN(CC)c1ccc(NS(=O)(=O)c2ccc(OC)cc2)cc1,3.24
5,O=[N+]([O-])c1ccc(SCCc2ccccn2)cc1,0.0591
6,O=[N+]([O-])c1ccc(N2CCN(S(=O)(=O)c3ccccc3)CC2)cc1NCc1ccco1,12.4
7,COc1ccc(CN2CCc3ccccc3C2)c(OC)c1OC,-3.44
8,CCOc1ccccc1Nc1nc(-c2sc(NC(=O)c3cccc(Cl)c3)nc2C)cs1,13.4
9,CC1(C)CC(=O)C2=C(C1)Nc1ccccc1NC2c1ccc(F)c(F)c1 (centres unmarked),3.54
10,COc1ccc(OC)c(CCNC(=O)C2CCN(c3nnc(-n4cccc4)s3)CC2)c1,2.09
11,COC(=O)N/N=C/c1cc(N=Nc2ccccc2)ccc1O,4.67
12,Cc1c(NS(C)(=O)=O)c(=O)n(-c2ccccc2)n1C,-4.72
13,CC1=C(C(=O)OCc2ccccc2)C(c2cccc(Br)c2)NC(=O)N1 (centres unmarked),15.5
14,C[n+]1ccccc1/C=C/c1ccc([N+](=O)[O-])cc1.[I-],4.84
15,CSc1ncc(C(=O)Nc2ccc(Br)cn2)c(C)n1,2.32
16,CCOc1ccc(S(=O)(=O)NCCN2CCOCC2)c2ccccc12,2.21
17,COc1ccc(C(=O)N2CCN(c3ccc([N+](=O)[O-])c(NCCc4ccc(OC)c(OC)c4)c3)CC2)cc1,10.8
18,CC(=O)Nc1cccc(C(=O)OCN2C(=O)c3ccccc3C2=O)c1,4.95
19,COc1ccc(CNC(=O)CN2C(=O)CSc3ccc(S(=O)(=O)N4CCOCC4)cc32)cc1,2.8
20,CC(C)c1ccc(CNc2cc(N3CCCC3)ccc2[N+](=O)[O-])cc1,16.4
21,CS(=O)(=O)N1CCN(c2ccc([N+](=O)[O-])cc2F)CC1,4.72
22,CCO[C@H]1OC(C(=O)NCc2nc3ccccc3[nH]2)=C[C@@H](c2ccccc2)[C@@H]1CCCO,2.09

row,Structure (SMILES),"hERG current change (%, negative = inhibition) at 1uM [%]"
1,CCOc1ccc(Cn2c(=O)sc3ccccc32)cc1OC,3.79
2,O=C1c2ccccc2C(=O)c2c(Nc3ccc(CCO)cc3)ccc(O)c21,11
3,O=C(c1ccoc1)N1CCCC(N2CCN(c3cccc(Cl)c3)CC2)C1 (centres unmarked),-11.9
4,CCn1cc(C(=O)NC2CCCCCC2)c2cc(OC)c(OC)cc2c1=O,7.84
5,CCn1c(C)nnc1SCC(=O)Nc1ccc(N2CCOCC2)cc1,-4.2
6,O=C(c1ccco1)N1CCCC(N2CCN(c3ccccc3F)CC2)C1 (centres unmarked),3.94
7,CCOc1ccc2[nH]c3c(=O)n(CCC4=CCCCC4)cnc3c2c1,11
8,N#CC1=C(N)Oc2n[nH]c(-c3cccs3)c2C1c1cccs1 (centres unmarked),11.1
9,CN1CCCN(C(=O)CNC(=O)Cc2ccccc2)CC1,7.6
10,Cc1cc(C=C2C(=O)c3ccccc3C2=O)c(C)n1-c1ccccc1,11.3
11,COc1ccc(NC(=O)c2ccc(CNc3c(N4CCCC4)c(=O)c3=O)cc2)cc1Cl,0.701
12,N#Cc1c(N)nc2c(c1-c1ccncc1)CCCC2,3.94
13,Cc1sc2ncn(CC(=O)NCCCC(=O)N3CCCCC3)c(=O)c2c1C,11.5
14,COc1ccc(OC)c(NC(=O)c2ccc(NS(=O)(=O)c3c(C)noc3C)cc2)c1,5.79
15,CC(=O)N/C(=C/c1ccc(OS(=O)(=O)c2ccc(C)cc2)cc1)C(=O)Nc1ccc(C(=O)O)cc1,8.8
16,COc1cccc2cc(C(C)=O)c(=O)oc12,10.7
17,N#CC1=C(N)N(c2ccccc2)C(c2cccc([N+](=O)[O-])c2)C1(C#N)C#N (centres unmarked),0.431
18,N#Cc1c(NC(=O)CSc2ccccn2)oc(-c2ccccc2)c1-c1ccccc1,6.16
19,Cc1ccc(NCc2nnc(SCC(N)=O)o2)c(C)c1,9.77
20,Cc1cc(Cl)ccc1NC(=O)CCC(=O)O,9.69
21,O=C1c2ccccc2-c2c1cccc2C(=O)N1CCCCC1,-2.14
22,COc1ccc(-c2sc3ccc(N4CCOCC4)cc3c2-c2ccc(OC)c(F)c2)cc1,7.97

row,Structure (SMILES),"hERG current change (%, negative = inhibition) at 1uM [%]"
1,Nc1nc(NCc2ccc(Cl)cc2)nc(NCCO)c1[N+](=O)[O-],8.01
2,Cc1nc(-c2ccc(F)cc2)c(CC(=O)N2CCN(S(=O)(=O)c3ccc(F)cc3)CC2)s1,7.89
3,Cc1ccc(S(=O)(=O)N2CCC(=O)N(C(COCc3ccc(Cl)c(Cl)c3)Cc3ccccc3)CC2)cc1 (centres unmarked),12.2
4,CC(/C=C1\SC(=S)N(CCCC(=O)Nc2ccc(C(=O)O)cc2)C1=O)=C\c1ccccc1,7.78
5,CCS(=O)(=O)c1nc(S(=O)(=O)c2ccc(Cl)cc2)c(NCc2ccco2)s1,15.9
6,Cc1cc(NS(=O)(=O)c2ccc(NC(=O)c3ccccc3C)cc2)no1,14.2
7,Cc1cc(C)cc(OC(=O)CN2C(=O)c3ccccc3C2=O)c1,11.8
8,COc1ccc(C)cc1NC(=O)CN1C(=O)C2CC=CCC2C1=O (centres unmarked),14.9
9,Cc1ccc(CSC(Nc2ccc(F)cc2)=C(C#N)C#N)cc1,17.1
10,CN(C(=O)COC(=O)c1cc2c(s1)CCCCC2)c1ccccc1,3.63
11,CCC(CC)C(=O)Nc1nnc(S(=O)(=O)N(CC)c2ccc(OC)cc2)s1,6.29
12,Cc1cc(Cl)ccc1C(=O)C1CCCN(C(=O)c2ccc3ncccc3c2)C1 (centres unmarked),10.3
13,Cn1cc(Br)c(C(=O)Nc2c(F)c(F)c(F)c(F)c2F)n1,0.502
14,Cn1ccnc1SCC(=O)N1CCN(S(=O)(=O)c2ccccc2)CC1,4.93
15,Cc1ccc(N(CC(=O)N2CCN(C3CCCCC3)CC2)S(=O)(=O)c2cccnc2)cc1,-17
16,CC(C)CCN1CCNC(=O)C1CC(=O)N(C)CCCN1CCOCC1 (centres unmarked),12.1
17,O=C(O)c1ccccc1C(=O)c1ccc2c(c1)N(Cc1cccc(F)c1)C(=O)CO2,5.56
18,C=CCN(CC=C)Cc1nc(N)nc(Nc2ccccc2C)n1,6.26
19,COc1ccc(N2CCSC2C(=O)NN)cc1 (centres unmarked),3.32
20,N#C/C(=C/c1ccccc1)C(=O)OCC(=O)Nc1ccccc1[N+](=O)[O-],9.53
21,CCOC(=O)N1CCN(C(=O)c2cc3cc(C)ccc3[nH]2)CC1,13.9
22,COc1ccc2nc(-c3ccccc3)cc(C(=O)N3CCC3)c2c1,4.52

row,Structure (SMILES),"hERG current change (%, negative = inhibition) at 1uM [%]"
1,Cc1ccc(-c2c(C)sc3nc[nH]c(=O)c23)cc1C,14.6
2,O=C(c1ccc2c(=O)n3c(nc2c1)CCCCC3)N1CCN(Cc2ccccc2)CC1,1.78
3,O=C(CSc1ccccc1C(=O)NCCCN1CCCC1=O)NCc1ccco1,7.26
4,Cc1cc(CNC(=S)Nc2cccc(Cl)c2Cl)nn1C,17.2
5,CC1=NNC(=O)C1CC(=O)N/N=C/C(Br)=C/c1ccccc1 (centres unmarked),9.59
6,CCC(C)/C(C)=N/NC(=O)c1cn(-c2ccccc2)nc1-c1ccccc1 (centres unmarked),12.9
7,Cc1noc(C)c1COc1cccc(C(=O)N(C)Cc2nc3ccccc3c(=O)[nH]2)c1,-3.83
8,CCCCNC(=S)NNC(=O)c1csc2c1CCC(C)C2 (centres unmarked),3.52
9,CN1CCN(C(=S)C(=O)Nc2ccc(Br)cc2)CC1,1.66
10,CNC(=O)CN(c1cc(OCCOC)c(Cl)cc1Cl)S(=O)(=O)c1ccc(OC)cc1,7.02
11,COc1ccc(NC(=O)CSc2ccccc2)cc1S(=O)(=O)N1CCOCC1,1.15
12,O=C(CCCn1c(=O)[nH]c2ccsc2c1=O)Nc1ccc(F)cc1,3.54
13,Cc1ccccc1CN1N=C(/C=C/c2ccccc2)CCC1=O,11.3
14,O=C(/C=C/c1ccccc1)Nc1nnc(-c2ccco2)o1,-2.4
15,O=C(Nc1cccc(Br)c1)c1ccc2nc(N3C(=O)CCC3=O)sc2c1,16.6
16,O=C(CN(Cc1ccccc1)C(=O)CCl)c1cccc(Br)c1,3.08
17,CSCCC(NC(=O)C1CCCCC1)c1nc2ccccc2[nH]1 (centres unmarked),9.36
18,COC1CCN(Cc2c(C(=O)N3C[C@@H](C)O[C@@H](C)C3)nc3ccc(Cl)cn23)CC1,21.8
19,COc1ccccc1N1CCN(/N=C/c2cccc(OC)c2O)CC1,13.3
20,CCN1CCN(Cc2ccc(NC(=O)c3cc(NC(=O)c4cncc(-c5cccs5)c4)cc(OC)c3)cc2C(F)(F)F)CC1.O=C(O)C(F)(F)F,11.1
